Experimental data reported in PMC4336329 (PLoS ONE, 2015).
About 2,200 (0.71%) of roughly 310,000 compounds showed an effect of 50% or more. Effects have a minus sign here. The list shows a part of the results.

The molecules below were run against human ether-à-go-go-related gene (hERG) potassium channel (human, UniProt Q12809) (assay: primary screen, population patch clamp on CHO cells stably expressing hERG).
Sequence of human ether-à-go-go-related gene (hERG) potassium channel (Q12809 whole entry, looked up): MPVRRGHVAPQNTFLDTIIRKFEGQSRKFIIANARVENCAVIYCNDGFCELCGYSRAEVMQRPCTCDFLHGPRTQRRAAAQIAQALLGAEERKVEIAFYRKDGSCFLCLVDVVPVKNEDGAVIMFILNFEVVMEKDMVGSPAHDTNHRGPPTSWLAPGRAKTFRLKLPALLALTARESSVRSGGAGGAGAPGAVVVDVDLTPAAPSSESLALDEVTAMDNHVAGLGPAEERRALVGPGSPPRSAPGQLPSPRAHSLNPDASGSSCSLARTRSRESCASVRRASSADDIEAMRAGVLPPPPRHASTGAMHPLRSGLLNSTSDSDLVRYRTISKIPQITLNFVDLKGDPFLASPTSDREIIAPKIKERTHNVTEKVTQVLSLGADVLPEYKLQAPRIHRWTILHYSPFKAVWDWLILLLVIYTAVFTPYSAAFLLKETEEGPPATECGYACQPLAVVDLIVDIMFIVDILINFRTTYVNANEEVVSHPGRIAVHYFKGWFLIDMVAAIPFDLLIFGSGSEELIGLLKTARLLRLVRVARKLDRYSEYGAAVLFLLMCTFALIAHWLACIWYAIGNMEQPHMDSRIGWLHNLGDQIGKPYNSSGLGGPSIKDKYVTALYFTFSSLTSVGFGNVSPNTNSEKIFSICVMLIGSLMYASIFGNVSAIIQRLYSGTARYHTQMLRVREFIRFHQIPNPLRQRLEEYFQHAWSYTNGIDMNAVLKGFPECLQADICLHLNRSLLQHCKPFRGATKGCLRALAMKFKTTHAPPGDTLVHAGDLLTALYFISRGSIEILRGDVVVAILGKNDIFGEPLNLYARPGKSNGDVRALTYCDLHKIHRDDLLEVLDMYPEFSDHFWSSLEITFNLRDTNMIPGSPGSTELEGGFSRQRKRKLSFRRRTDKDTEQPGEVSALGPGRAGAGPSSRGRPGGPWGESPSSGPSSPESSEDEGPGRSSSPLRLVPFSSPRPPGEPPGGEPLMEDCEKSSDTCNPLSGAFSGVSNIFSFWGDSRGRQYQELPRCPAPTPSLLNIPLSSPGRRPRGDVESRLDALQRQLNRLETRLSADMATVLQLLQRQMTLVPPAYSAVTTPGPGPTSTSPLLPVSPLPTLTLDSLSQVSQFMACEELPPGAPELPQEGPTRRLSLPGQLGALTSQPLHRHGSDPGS

Structure (SMILES)	hERG current change (%, negative = inhibition) at 1uM
COc1ccc(-c2n[nH]c(=S)n2-c2ccc(C)cc2)cc1OC	14.2%
NC(=O)C1CCN(C(=O)CCC(=O)c2ccc(Br)cc2)CC1	9.54%
O=C1CC(c2ccc(OCCCCCOc3ccc(C4CC(=O)NC4=O)cc3)cc2)C(=O)N1 (stereo not shown)	5.98%
Cc1ccc(N(C)S(=O)(=O)c2cccc(C(=O)Nc3nc4ccccc4[nH]3)c2)cc1	4.7%
O=c1[nH]ncc2c3ccccc3n(Cc3ccc(F)cc3)c12	8.78%
CCOC(=O)c1c(NC(=S)Nc2ccc(OCC)cc2)sc2c1CCN(C)C2	-11%
CC(Sc1nnc(C2CC2)n1N)C(=O)NC1CCCCC1C (stereo not shown)	1.17%
CC(NC(=O)CCn1nc(-c2ccc(Cl)cc2)ccc1=O)c1ccccc1 (stereo not shown)	-31.7%
CCOC(=O)C1CCN(Cc2ccccc2C(F)(F)F)CC1	6.38%
CC(=O)CCc1oc2ccc(C)cc2c1-c1ccc(C)o1	10.6%
CCCn1c(=O)cc(N)n(-c2ccc(OC(F)(F)F)cc2)c1=O	12.2%
Cc1ccc(SCc2cc(=O)[nH]c(N3CCOCC3)n2)cc1	7.23%
O=C(CNc1cccc(S(=O)(=O)N2CCCCCC2)c1)Nc1cccc([N+](=O)[O-])c1	-7.36%
COC(=O)C1C2c3ccccc3OC1(C)N=c1s/c(=C/c3cnn(C)c3)c(=O)n12 (stereo not shown)	6.18%
CCOC(=O)C1CCCN(C2=NC(=O)/C(=C/c3ccc(N(C)C)cc3)S2)C1 (stereo not shown)	-0.555%
CCOC(=O)C1CCN(C(=O)CN(c2ccc(OC)c(OC)c2)S(=O)(=O)c2ccccc2)CC1	-4.12%
Cc1ncoc1C(=O)N1CCc2c([nH]c3ccccc23)C1c1ccccc1F (stereo not shown)	9.09%
COc1cc(C(=O)NNC(=O)Nc2ccc([N+](=O)[O-])cc2)cc(OC)c1OC	9.17%
COc1ccc2oc(C(=O)OCC(=O)N3CCCC(C)C3)c(C)c2c1 (stereo not shown)	6.03%
CSc1ccccc1C(=O)Nc1ccc2c(c1)OCO2	7.77%

Structure (SMILES)	hERG current change (%, negative = inhibition) at 1uM
Cc1cccc(Oc2ccc(NS(=O)(=O)c3ccc(C)c(C(=O)O)c3)cc2)c1	8.45%
C/C(=N\NC(=O)c1ccoc1C)c1ccccc1O	-4.94%
COc1ccc(/C=C/C(=O)OCC(=O)Nc2ccc3[nH]c(=O)[nH]c3c2)cc1OC	1.26%
Cc1c(C(=O)O)c(=O)n(-c2ccccc2)n1-c1ccccc1	4.38%
NC(N)=N/N=C/c1ccc(Cl)c([N+](=O)[O-])c1	4.46%
COc1cc(S(=O)(=O)Nc2ccc(C)cc2)ccc1NC(=O)c1ccncc1	7.08%
CN(c1ccccc1)S(=O)(=O)c1cccc(C(=O)NNC(=O)c2ccccc2)c1	4.84%
Cc1noc(/C=C/N(C)C)c1S(=O)(=O)N1CCCC(C(=O)Nc2ccc3c(c2)OCO3)C1 (stereo not shown)	6.94%
CCO[C@@H]1OC(C(=O)NCc2ccccc2)=C[C@H](C(C)(C)C)[C@H]1CCCO	6.9%
CCOC(=O)CSc1nnc(C)n1N	11.2%
c1ccc(-c2ccc3c(n2)CCCO3)cc1	0.108%
CCC(=O)N1CCc2cc(S(=O)(=O)CCC(=O)NCCc3ccccc3)ccc21	22.9%
N#Cc1ccccc1NC(=O)COC(=O)CCc1ccccc1	4.53%
CP(=O)(Nc1ccccc1)C(Cl)(Cl)Cl (stereo not shown)	9.06%
Cc1ccc(C)c(N(C(=O)Cn2nnc(-c3cccs3)n2)C(C(=O)NC2CCCC2)c2ccncc2)c1 (stereo not shown)	-0.65%
COc1ccc([C@H]2CC(=O)C=C(c3cccc4c3sc3ccccc34)C2)cc1OC	6.24%
O=C1Nc2cc(Cl)ccc2C1(N1CCNCC1)C(F)(F)F (stereo not shown)	-0.156%
CC(C)CCOP(=O)(c1ccccc1)c1ccccc1	4.06%
COc1c(/C=N/NC(=O)c2ccncc2)c(CCN(C)C(C)=O)cc2c1OCO2	14.1%
CCOC(=O)C1(CCCc2ccccc2)CCN(C(=O)CCCn2cncn2)CC1	-13.5%

Structure (SMILES)	hERG current change (%, negative = inhibition) at 1uM
COc1ccc(-c2cn3cccnc3n2)cc1NC(=O)C1CC1	2.63%
COc1ccc(-n2nc3c(c2NC(=O)c2ccc(Br)o2)CS(=O)(=O)C3)cc1	0.428%
CCCc1[nH]nc2c1C(c1cccnc1)C(C#N)=C(N)O2 (stereo not shown)	12%
c1ccn2c(SCc3ccc4c(c3)OCCO4)nnc2c1	2%
O=C(/C=C/c1ccccc1Cl)c1ccc[nH]1	4.48%
COc1c(-c2ccc(O)cc2)oc2cc(O)cc(O)c2c1=O	7.05%
COc1ccc(NC(=O)c2ccccc2[N+](=O)[O-])cc1OC	7.44%
CCc1ccc(-n2nc3cc(C)c(N)cc3n2)cc1	13.3%
CCCCNC(=O)c1onc(CSc2ccc(C(C)C)cc2)c1C(=O)O	9.78%
O=S(NCc1ccco1)C12CC3CC(CC(C3)C1)C2 (stereo not shown)	4.43%
COc1cccc(CNn2cnnc2)c1OCc1ccc(F)cc1	14.5%
COc1cc2cc(NC(C)=O)cc(NCc3ccccc3)c2cc1OC	15.4%
CCCn1nnc(NC(=O)c2cc(Br)cc(Br)c2OC)n1	-3.33%
Cc1cc(S(=O)(=O)N2CCOCC2)ccc1OCC(=O)NCc1ccccn1	5.16%
Cc1nc2ccccn2c1C(=O)OCC#N	8.89%
C=CCNC(=O)/C(C#N)=C/c1ccc(SC)cc1	-1.94%
Clc1ccc(-c2nnc(-c3ccco3)nc2N2CCCCC2)cc1	19.4%
CCCOc1ccc(C(=O)NNC(=S)NC(=O)c2ccccc2[N+](=O)[O-])cc1	13.3%
